Consider 167 variants from the RNAGym collection of RNA variant scans (doi:10.1093/nar/gkz1192).

The labels stand for the following.
B1: CPEB3 Ribozyme (parent)
chain: UAACAGGGGGCCACAGCAGAAGCGUUCACGUCGCAGCCCCUGUCAGAUUCUGGUGAAUCUGCGAAUUCUGCUGUAUAUCUC

Read counts are not given, so values of variants with three or more changes are uncertain.

The variants in the data set derive from B1. The data set can be described thus: self-cleavage, relative activity (ratio to wild type); higher = more cleavage; in vitro, sequencing. The gist of the method:
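After error-prone PCR and barcoding, CPEB3 ribozyme mutant libraries were transcribed with T7 RNA polymerase at 37°C for 5 hours, then given 15 min with DNase I before an EDTA stop, and they cleaved during both steps. Reverse transcription with template switching preceded Illumina sequencing. Relative activity divides a variant's cleaved/total read fraction by the unmutated ribozyme's. At least 5 reads were required per variant, and three batches were averaged.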
As to U26A U31C U43C, the self-cleavage was determined as 0.25.

For U26A U31C A35G U60C U66C C68A, the self-cleavage is 0.21.

For U26A G33U A35G U48C U72C, the self-cleavage is 0.06. The same measure for U26C G30A U51C A57U U78A: 0.09; for U26C G46A U48C C50A U66G: 0. The same measure for U26C C59G U69C: 0.09; for U26C U31C C32U U41A U51C A56G: 0.14; for U26A U49C A57U G70A: 0.09. The same measure for U26C A28C U60C: 0.14.

U26A U31C A35U U41A A47G U74A U78C: the self-cleavage was 0.23. As to U26A U72A U78A U80A, the self-cleavage is 1.08. In the case of U26C A65G U69A it was 0.15; in that of U26C C27U C32A, 0.13. With U26C U31C G53U U54C, the self-cleavage is 0.32. In the case of U26C A35G U48C U51C G52C it was 0.23.

As to U26A U41C U80A, the self-cleavage was found to be 0.67. U26A U31C G52C A65G U69C U74A: the self-cleavage is 0.11. In the case of U26C A47C U67A, the self-cleavage worked out at 0.23. As for U26C A56G A64U, the self-cleavage was 0.14. The same measure for U26C C32G U41C: 0.08; for U26C A45G G52A U78A: 0.38. Regarding U26C G33C U43C U48C A65U, the self-cleavage came out at 0.09. For the variant U26C G33A A64G U72A, the self-cleavage was 0.1.

For U26A U31C A75G, the self-cleavage came to 0.57. In the case of U26C U31A U51G G52A G53A A64U U72G it was 0.07; in that of U26C A35G U41G G70A U80C, 0.19; in that of U26A U41G A47G, 0.23. The same measure for U26C C40U G53A A57C: 0.18. The same measure for U26A U43C U49A: 0.16; for U26C A35U U58C U69C: 0.12; for U26A U54C U66C U80C: 0.63. As for U26C A28G U31A U49C U58C A65G, the self-cleavage amounted to 0.12.

U26C A47G A56G U60A A64U: the self-cleavage was determined as 0.17. The same measure for U26A U48C U51A A64G: 0.1; for U26A G53C U72A: 0.65. For U26C A45U U48C U58A, the self-cleavage stood at 0.18. In the case of U26C A28G A35G U41A U48C it was 0.23; in that of U26C G33A A47G U69A, 0.23; in that of U26C A45G A65G U69G, 0.12.

As to U26A U31C A35U A45G C59A, the self-cleavage was 0.15. In the case of U26C U31C C39A it was 0.11; in that of U26C U31C A64G, 0.17. On to U26C G30A U41C A56G A57G U67C, for which the self-cleavage was found to be 0.07. For the variant U26C U31C C38U U41A U51A, the self-cleavage came to 0.12. For the variant U26C A64U U67A, the self-cleavage turned out to be 0.09. Take U26C C68U U80C: the self-cleavage stood at 0.57. On to U26C C29A G52U, for which the self-cleavage turned out to be 0.28. In the case of U26C A35G U48G it was 0.51; in that of U26A U41A U80C, 0.24; in that of U26C A28G C40U U54C U58C U60C, 0. In the case of U26C C34U A45G A56G U74C U80C it was 0.19; in that of U26C U41A A65C, 0.09; in that of U26C A28C G55A U72A, 0.17. As for U26C A35G U43A U60C, the self-cleavage came out at 0.12. In the case of U26C A35U A45U U51C A56G U66C U76A it was 0.13. As to U26A U43C U60G A64G U66C, the self-cleavage is 0.08. In the case of U26C A65G U78C it was 0.13.

Turning to U26C U41A G55A A57G A65U, the self-cleavage stood at 0.13. The same measure for U26C U31A A45C U78C: 0.36. For the variant U26C G30A C44U A47U C59A U67C, the self-cleavage amounted to 0.04.

As to U26C A64G U69A, the self-cleavage came out at 0.17. Consider U26C U31C U43C, for which the self-cleavage turned out to be 0.59. In the case of U26C C27U U60C U66C it was 0.07; in that of U26C A35G C38U C44A, 0.41. In the case of U26C C50U U60C it was 0.08; in that of U26A U31C C40A G55U A64U U69C, 0.06. For the variant U26C G52A U74A U80A, the self-cleavage was 0.89. The same measure for U26C U31C G33U: 0.09; for U26A G42A A47U U67C: 0.05; for U26A U31C U51A: 0.84.

For the variant U26C A45G U80A, the self-cleavage worked out at 0.32. The same measure for U26A U58C U72A: 0.24; for U26A U58C U72C: 0.59; for U26C G33U A57G A65G: 0.45. In the case of U26C A28G A64U U69G it was 0.04; in that of U26C A35U A47G U67C U69A U72C, 0.08. In the case of U26C G30U A56G it was 0.08; in that of U26C A47G U60C U67C, 0.07. Regarding U26A U41A U76A, the self-cleavage turned out to be 0.19.

For U26C A28U U31A U51A U54A U60A C71U, the self-cleavage came out at 0.13. As for U26C G63U U72C, the self-cleavage was found to be 0.75. Consider U26C A35U U69C, for which the self-cleavage amounted to 0.13. Take U26C U31A U41A A56G A64U U72A: the self-cleavage came to 0.18. Consider U26C C44A C68U U72A, for which the self-cleavage is 0.14. As to U26C C44U A47U U48C U78C, the self-cleavage was found to be 0.16.

On to U26C G30C A56G U58A A77U U80C, for which the self-cleavage worked out at 0.1. Consider U26A U67C U74C A75U, for which the self-cleavage stood at 0.1. In the case of U26C C29U U51A A56U U80A it was 0.09; in that of U26C A35G U49C, 0.34; in that of U26A U41G A57U U72C, 0.21. On to U26C C34U U41A, for which the self-cleavage stood at 0.1. On to U26C A56G A65G C68A, for which the self-cleavage came out at 0.12. In the case of U26C G36C U76A it was 0.19.

In the case of U26C U31C A45C U72A, the self-cleavage was 0.19. On to U26C C29G A35G U72A, for which the self-cleavage came out at 0.17.

As for U26A U58C C71U, the self-cleavage worked out at 0.2. In the case of U26A U69A G70C it was 0.22; in that of U26C A45U U48C, 0.32; in that of U26C A45U U48A, 0.2. In the case of U26C A56U G63A U72G U78C it was 0.2. Regarding U26C A28G U41A U80C, the self-cleavage amounted to 0.08. For U26C A28C U54A A57G A64U C68G, the self-cleavage is 0.04. The same measure for U26C A35U U48C G52A: 0.38. In the case of U26C A57C U72A it was 0.15.

With U26C U31A U60C U66C, the self-cleavage stood at 0.09. On to U26A U51C U69C G70U, for which the self-cleavage is 0.43. As to U26C A64G A65U, the self-cleavage worked out at 0.1. In the case of U26C C40A A56G it was 0.16.

On to U26A U41C U48C, for which the self-cleavage came to 0.53. The same measure for U26C A35G A56U: 0.87. In the case of U26C C38G U41C U43A U76C it was 0.11; in that of U26C C32U A35G U51A U78A, 0.18. With U26C C38A A57G U58C U69A, the self-cleavage was 0.14. In the case of U26C A28G C29U C38U A56G C62G U78A it was 0.09; in that of U26C A57U U72A, 0.12; in that of U26A U31C A47G U51C U54C A56U U60A, 0.17. With U26C A28G A56U A64G, the self-cleavage was found to be 0.18. Take U26C C29A U51A A57G U60C U78C: the self-cleavage turned out to be 0.19. For the variant U26A U72A U78C, the self-cleavage stood at 0.81.

U26C U31A U80C: the self-cleavage turned out to be 0.38. The same measure for U26C C62U U66C U80A: 0.06; for U26C C32U A64C: 0.18. U26C C40U U54C U80C: the self-cleavage worked out at 0.16.

On to U26C U31C U41C A45G, for which the self-cleavage was 0.07. With U26C G30A U31G U41C U69G U74C, the self-cleavage was 0.08. U26C A28G U31C G36U U43C A47U: the self-cleavage came out at 0.17. In the case of U26A U41G U78C it was 0.13; in that of U26C A35U G42A U43G A56G, 0.14; in that of U26C A56U U69C, 0.14. In the case of U26C C32U G33A A45G it was 0.24; in that of U26A U31C U66C U69C, 0.1; in that of U26C A28C U67A U80C, 0.09. As to U26C A35G U58A U76C, the self-cleavage was 0.65. The same measure for U26A U69A U72C: 0.3; for U26A U31A U67C U76G A77G: 0.1. Consider U26A U41A A56U A64G, for which the self-cleavage is 0.14. For U26C C44U U60C G61U U80C, the self-cleavage was found to be 0.18. The same measure for U26A G63A G73A: 1.23; for U26C A28G A35G G36A A64G U74C: 0.21. Turning to U26C A28G U31A U67C, the self-cleavage is 0.05.

With U26C A28G C38A, the self-cleavage is 0.16. In the case of U26C C29U A35U A45U A56G it was 0.19; in that of U26C A56G A75G, 0.26. In the case of U26C A35G U49C U78C it was 0.59. Regarding U26C A47G U51A U58C, the self-cleavage turned out to be 0.51. Consider U26C A64U U66A U76C, for which the self-cleavage is 0.22. The same measure for U26C C44U U67A: 0.07.

For the variant U26C C32U U41C U58C A64U A65U U74C, the self-cleavage is 0.07. For U26C U41A A45G U76C, the self-cleavage stood at 0.08. The same measure for U26A U48C U49C U51A: 0.28; for U26C A35G U58C A65U U72C U74G: 0.22. The same measure for U26C U31A A47U: 0.1; for U26C A56C U58C U60A A64U: 0.14.

In the case of U26C A28U A35U U58C U69A, the self-cleavage was found to be 0.06. On to U26C A28U U43C U49A U54C, for which the self-cleavage amounted to 0.15. Consider U26C U31C C40A A47U A56G, for which the self-cleavage is 0.33. The same measure for U26C G61A A65G U72G: 0.1. For U26C U31A U74C U76A, the self-cleavage worked out at 0.14. In the case of U26C A28U A56G A64U it was 0.09. In the case of U26C U41A A65G U69C C81U it was 0.05; in that of U26A U48C A64G, 0.28; in that of U26C C34G A65U, 0.22. The same measure for U26A U51G U54G U80C: 0.31. U26C A28G G30C U41C G55U: the self-cleavage came to 0.25. In the case of U26C A45G U49C C62U U78C it was 0.32; in that of U26C C29G U51C U67C, 0.04. The same measure for U26C A28C C37U U72C: 0.09.
